# Some of the results follow.
# B1: Gal 8 (Homo sapiens) (protein)
# chain: MLSLNNLQNIIYNPVIPYVGTIPDQLDPGTLIVICGHVPSDADRFQVDLQNGSSVKPRADVAFHFNPRFKRAGCIVCNTLINEKWGREEITYDTPFKREKSFEIVIMVLKDKFQVAVNGKHTLLYGHRIGPEKIDTLGIYGKVNIHSIGFSFSSDLQSTQASSLELTEISRENVPKSGTPQLQTVSPSWDLQGHGSETFCSVLWTRVFLEIAFCRPIGLTVASFQSLPFAARLNTPMGPGRTVVVKGEVNANAKSFNVDLLAGKSKDIALHLNPRLNIKAFVRNSFLQESWGEEERNITSFPFSPGMYFEMIIYCDVREFKVAVNGVHSLEYKHRFKELSSIDTLEINGDIHLLEVRSW
# Tests used:
# Assay in all cases: glycan array binding signal (z-score within array); higher = stronger binding
# Settings in all cases: glycan notation: IUPAC condensed, linker removed
# [1] = target: Neu5Ac(a2-6)Gal(b1-4)GlcNAc
# Summary of the method: (§1)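 The binding signal is a Z-score computed within each array. Data were drawn from 3228 arrays in the Consortium for Functional Glycomics database, restricted to those with a known protein sequence. Scores were averaged over arrays of the same protein sequence at different concentrations or buffers, and over linkers, and negative values can be taken as non-binding.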
# [2] = target: Neu5Ac(a2-6)Gal(b1-4)GlcNAc(b1-2)Man
# Summary of the method: as §1
# [3] = target: Neu5Ac(a2-6)Gal(b1-4)GlcNAc(b1-2)Man(a1-3)Man(b1-4)GlcNAc(b1-4)GlcNAc
# Summary of the method: as §1
# [4] = target: Neu5Ac(a2-6)Gal(b1-4)GlcNAc(b1-2)Man(a1-3)[Gal(b1-4)GlcNAc(b1-2)Man(a1-6)]Man(b1-4)GlcNAc(b1-4)GlcNAc
# Summary of the method: as §1
# [5] = target: Neu5Ac(a2-6)Gal(b1-4)GlcNAc(b1-2)Man(a1-3)[GlcNAc(b1-2)Man(a1-6)]Man(b1-4)GlcNAc(b1-4)GlcNAc
# Summary of the method: as §1
# [6] = target: Neu5Ac(a2-6)Gal(b1-4)GlcNAc(b1-2)Man(a1-3)[GlcNAc(b1-2)Man(b1-4)GlcNAc(b1-2)Man(a1-6)]Man(b1-4)GlcNAc(b1-4)GlcNAc
# Summary of the method: as §1
# [7] = target: Neu5Ac(a2-6)Gal(b1-4)GlcNAc(b1-2)Man(a1-3)[GlcNAc(b1-4)][Neu5Ac(a2-6)Gal(b1-4)GlcNAc(b1-2)Man(a1-6)]Man(b1-4)GlcNAc(b1-4)GlcNAc
# Summary of the method: as §1
# [8] = target: Neu5Ac(a2-6)Gal(b1-4)GlcNAc(b1-2)Man(a1-3)[Man(a1-6)]Man(b1-4)GlcNAc(b1-4)GlcNAc
# Summary of the method: as §1
# [9] = target: Neu5Ac(a2-6)Gal(b1-4)GlcNAc(b1-2)Man(a1-3)[Neu5Ac(a2-3)Gal(b1-4)GlcNAc(b1-2)Man(a1-6)]Man(b1-4)GlcNAc(b1-4)GlcNAc
# Summary of the method: as §1
# [10] = target: Neu5Ac(a2-6)Gal(b1-4)GlcNAc(b1-2)Man(a1-3)[Neu5Ac(a2-6)Gal(b1-4)GlcNAc(b1-2)Man(a1-6)]Man(b1-4)GlcNAc(b1-4)GlcNAc
# Summary of the method: as §1
# [11] = target: Neu5Ac(a2-6)Gal(b1-4)GlcNAc(b1-2)Man(a1-3)[Neu5Ac(a2-6)Gal(b1-4)GlcNAc(b1-2)Man(a1-6)]Man(b1-4)GlcNAc(b1-4)[Fuc(a1-6)]GlcNAc
# Summary of the method: as §1
# [12] = target: Neu5Ac(a2-6)Gal(b1-4)GlcNAc(b1-2)Man(a1-6)Man(b1-4)GlcNAc(b1-4)GlcNAc
# Summary of the method: as §1
# [13] = target: Neu5Ac(a2-6)Gal(b1-4)GlcNAc(b1-2)Man(a1-6)[Gal(b1-4)GlcNAc(b1-2)Man(a1-3)]Man(b1-4)GlcNAc(b1-4)GlcNAc
# Summary of the method: as §1
# [14] = target: Neu5Ac(a2-6)Gal(b1-4)GlcNAc(b1-2)Man(a1-6)[GlcNAc(b1-2)Man(a1-3)]Man(b1-4)GlcNAc(b1-4)GlcNAc
# Summary of the method: as §1
# [15] = target: Neu5Ac(a2-6)Gal(b1-4)GlcNAc(b1-2)Man(a1-6)[Man(a1-3)]Man(b1-4)GlcNAc(b1-4)GlcNAc
# Summary of the method: as §1
# [16] = target: Neu5Ac(a2-6)Gal(b1-4)GlcNAc(b1-2)[Neu5Ac(a2-6)Gal(b1-4)GlcNAc(b1-4)]Man(a1-3)[GlcNAc(b1-4)][Neu5Ac(a2-6)Gal(b1-4)GlcNAc(b1-2)[Neu5Ac(a2-6)Gal(b1-4)GlcNAc(b1-6)]Man(a1-6)]Man(b1-4)GlcNAc(b1-4)GlcNAc
# Summary of the method: as §1
# [17] = target: Neu5Ac(a2-6)Gal(b1-4)GlcNAc(b1-2)[Neu5Ac(a2-6)Gal(b1-4)GlcNAc(b1-4)]Man(a1-3)[GlcNAc(b1-4)][Neu5Ac(a2-6)Gal(b1-4)GlcNAc(b1-4)Man(a1-6)]Man(b1-4)GlcNAc(b1-4)GlcNAc
# Summary of the method: as §1
# [18] = target: Neu5Ac(a2-6)Gal(b1-4)GlcNAc(b1-2)[Neu5Ac(a2-6)Gal(b1-4)GlcNAc(b1-6)]Man(a1-6)[Neu5Ac(a2-6)Gal(b1-4)GlcNAc(b1-2)Man(a1-3)][GlcNAc(b1-4)]Man(b1-4)GlcNAc(b1-4)GlcNAc
# Summary of the method: as §1
# [19] = target: Neu5Ac(a2-6)Gal(b1-4)GlcNAc(b1-3)Gal(b1-3)GlcNAc
# Summary of the method: as §1
# [20] = target: Neu5Ac(a2-6)Gal(b1-4)GlcNAc(b1-3)Gal(b1-4)GlcNAc
# Summary of the method: as §1
# [21] = target: Neu5Ac(a2-6)Gal(b1-4)GlcNAc(b1-3)Gal(b1-4)GlcNAc(b1-2)Man(a1-3)[Neu5Ac(a2-6)Gal(b1-4)GlcNAc(b1-3)Gal(b1-4)GlcNAc(b1-2)Man(a1-6)]GalNAc
# Summary of the method: as §1
# [22] = target: Neu5Ac(a2-6)Gal(b1-4)GlcNAc(b1-3)Gal(b1-4)GlcNAc(b1-3)Gal(b1-4)GlcNAc
# Summary of the method: as §1
# [23] = target: Neu5Ac(a2-6)Gal(b1-4)GlcNAc(b1-3)Gal(b1-4)GlcNAc(b1-3)Gal(b1-4)GlcNAc(b1-2)Man(a1-3)[Neu5Ac(a2-6)Gal(b1-4)GlcNAc(b1-3)Gal(b1-4)GlcNAc(b1-3)Gal(b1-4)GlcNAc(b1-2)Man(a1-6)]GalNAc
# Summary of the method: as §1
# [24] = target: Neu5Ac(a2-6)Gal(b1-4)GlcNAc(b1-3)Gal(b1-4)GlcNAc(b1-3)GalNAc
# Summary of the method: as §1
# [25] = target: Neu5Ac(a2-6)Gal(b1-4)GlcNAc(b1-3)Gal(b1-4)GlcNAc(b1-3)[Neu5Ac(a2-6)Gal(b1-4)GlcNAc(b1-3)Gal(b1-4)GlcNAc(b1-6)]GalNAc
# Summary of the method: as §1
# [26] = target: Neu5Ac(a2-6)Gal(b1-4)GlcNAc(b1-3)Gal(b1-4)GlcNAc(b1-6)[Gal(b1-3)]GalNAc
# Summary of the method: as §1
# [27] = target: Neu5Ac(a2-6)Gal(b1-4)GlcNAc(b1-3)Gal(b1-4)[Fuc(a1-3)]GlcNAc(b1-3)Gal(b1-4)[Fuc(a1-3)]GlcNAc
# Summary of the method: as §1
# [28] = target: Neu5Ac(a2-6)Gal(b1-4)GlcNAc(b1-3)GalNAc
# Summary of the method: as §1
# [29] = target: Neu5Ac(a2-6)Gal(b1-4)GlcNAc(b1-3)[Neu5Ac(a2-6)Gal(b1-4)GlcNAc(b1-6)]GalNAc
# Summary of the method: as §1
# [30] = target: Neu5Ac(a2-6)Gal(b1-4)GlcNAc(b1-6)GalNAc
# Summary of the method: as §1
# [31] = target: Neu5Ac(a2-6)Gal(b1-4)GlcNAc(b1-6)[Gal(b1-3)GlcNAc(b1-3)]Gal(b1-4)Glc
# Summary of the method: as §1
# [32] = target: Neu5Ac(a2-6)Gal(b1-4)GlcNAc(b1-6)[Gal(b1-3)]GalNAc
# Summary of the method: as §1
# [33] = target: Neu5Ac(a2-6)Gal(b1-4)GlcNAc6S
# Summary of the method: as §1
# [34] = target: Neu5Ac(a2-6)GalNAc
# Summary of the method: as §1
binder,measurement,setting,value
B1,glycan array binding signal (z-score),[1],-0.383
same,glycan array binding signal (z-score),[2],-0.357
same,glycan array binding signal (z-score),[3],-0.356
same,glycan array binding signal (z-score),[4],-0.355
same,glycan array binding signal (z-score),[5],-0.361
same,glycan array binding signal (z-score),[6],-0.258
same,glycan array binding signal (z-score),[7],-0.358
same,glycan array binding signal (z-score),[8],-0.358
same,glycan array binding signal (z-score),[9],-0.351
same,glycan array binding signal (z-score),[10],-0.354
same,glycan array binding signal (z-score),[11],-0.356
same,glycan array binding signal (z-score),[12],-0.357
same,glycan array binding signal (z-score),[13],-0.351
same,glycan array binding signal (z-score),[14],-0.037
same,glycan array binding signal (z-score),[15],-0.357
same,glycan array binding signal (z-score),[16],-0.358
same,glycan array binding signal (z-score),[17],-0.358
same,glycan array binding signal (z-score),[18],-0.357
same,glycan array binding signal (z-score),[19],2.01
same,glycan array binding signal (z-score),[20],0.539
same,glycan array binding signal (z-score),[21],1.46
same,glycan array binding signal (z-score),[22],0.504
same,glycan array binding signal (z-score),[23],0.661
same,glycan array binding signal (z-score),[24],-0.145
same,glycan array binding signal (z-score),[25],-0.166
same,glycan array binding signal (z-score),[26],-0.068
same,glycan array binding signal (z-score),[27],-0.378
same,glycan array binding signal (z-score),[28],-0.355
same,glycan array binding signal (z-score),[29],-0.357
same,glycan array binding signal (z-score),[30],-0.357
same,glycan array binding signal (z-score),[31],-0.352
same,glycan array binding signal (z-score),[32],-0.354
same,glycan array binding signal (z-score),[33],-0.362
same,glycan array binding signal (z-score),[34],-0.183

# — the supplement of paper PMC8728848
